31 molecules from PubChem BioAssay AID1240 (Sanford-Burnham Center for Chemical Genomics, 2008) can be followed below.

The structures appear in SMILES notation. Out of some 50,000 compounds screened, about 800 (1.6%) showed an effect of 50% or more. Some of the results follow.

In the assay the target is Bcl-2-like protein 10 (Homo sapiens) (UniProt Q9HD36). Kind of assay: TR3 peptide-Bcl-B binding displacers, biochemical primary FP assay, phenotype converters (AID 1240).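 Note: 0% = Bcl-B with tracer peptide and DMSO and 100% = tracer peptide lacking Bcl-B.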 To be noted: GST-Bcl-B / FITC-TR3 peptide fluorescence polarization; stronger effect = higher value; compound at 3.75 mg/L.
Chain of UniProt Q9HD36 (Q9HD36 whole entry, looked up): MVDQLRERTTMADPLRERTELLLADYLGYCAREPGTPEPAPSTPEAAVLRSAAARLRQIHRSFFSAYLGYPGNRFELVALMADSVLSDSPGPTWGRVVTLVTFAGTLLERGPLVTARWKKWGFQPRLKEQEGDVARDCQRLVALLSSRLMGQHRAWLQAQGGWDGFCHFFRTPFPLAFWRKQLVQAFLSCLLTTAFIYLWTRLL
Consider `O=c1c(F)cn(Cc2ccccc2)c(=O)n1Cc1ccccc1`, for which the displacement is -4.3%.
In the case of `CC(C)CNC(=O)c1cccc(NC(=O)c2ccccc2Cl)c1`, the displacement was determined as 2.7%.
Consider `O=C(N/C(=C/c1cccs1)C(=O)N1CCOCC1)c1ccccc1`, for which the displacement stood at 8%.
As to `COCCCNS(=O)(=O)c1cc(Cl)ccc1Cl`, the displacement was -7.2%.
For `CCN(CC)CC(O)Cn1c2c(c3cc(C)ccc31)CCCC2=O` (stereo unspecified), the displacement was -6.4%.
Consider `O=C(N/N=C/c1ccccc1C(F)(F)F)c1ccc(CN2CCOCC2)cc1`, for which the displacement worked out at 0.7%.
The same measure for `COc1ccc(CNC(=O)c2ccccc2Br)cc1`: -7.1%.
In the case of `COc1ccc(Cl)cc1NC(=O)C1=C(C)NC(=S)NC1c1cccs1` (stereo unspecified), the displacement was -9.7%.
As to `Cc1nn(CC(=O)Nc2c(C)n(C)n(-c3ccccc3)c2=O)c(C)c1[N+](=O)[O-]`, the displacement was 0.3%.
Regarding `O=C(Nc1ccc2c(c1)OCO2)c1ccco1`, the displacement worked out at 0.6%.
`Cc1cccc(C2(c3cccc(C)c3)CC2C(=O)NC(C)(C)C)c1` (stereo unspecified): the displacement was -4.5%.
For `O=C(CSc1nnc(-c2ccc3c(c2)OCO3)n1-c1ccccc1)c1ccccc1`, the displacement turned out to be 1.9%.
As for `CCOc1ccccc1NC(=O)c1c(NC(=O)Cc2ccccc2)sc2c1CCCCC2`, the displacement turned out to be 4.5%.
As to `Cc1ccc(COc2ccccc2C=C2C(=O)NC(=S)NC2=O)cc1`, the displacement stood at 7.9%.
As for `CCOC(=O)c1oc2cc(-c3ccccc3)cc(O)c2c1C`, the displacement is -6.1%.
Turning to `Cc1ccc(C(=O)O/N=C(\N)c2ccc(Br)cc2)cc1`, the displacement was -13%.
Consider `CCCCCCCN(C(=S)Nc1ccc(F)cc1)C1CC(=O)N(c2ccc(OCCC)cc2)C1=O` (stereo unspecified), for which the displacement was -1.5%.
Take `COc1ccc(C2N(Cc3ccccc3)CCN2Cc2ccccc2)cc1OC`: the displacement was found to be 14.4%.
To `COc1ccc(OC)c(/C=C/c2[nH]c(=O)[nH]c(=O)c2[N+](=O)[O-])c1` belongs 13.1%.
Regarding `O=C(Nc1ccc(S(=O)(=O)Nc2nccs2)cc1)c1cncc(Br)c1`, the displacement was 17.4%.
For `COc1ccc(CCN2C(=O)CC(N3CCN(c4ccccn4)CC3)C2=O)cc1OC` (stereo unspecified), the displacement is -16.1%.
For `CC(C)(CO)N=Cc1ccc(Cl)cc1`, the displacement came to 5.6%.
Regarding `CCOC(=O)c1ccc(NC(=S)NC(NC(=O)Cc2ccccc2)C(Cl)(Cl)Cl)cc1` (stereo unspecified), the displacement is -15.3%.
In the case of `O=C(Nc1ccc2c(c1)OCCO2)c1ccc([N+](=O)[O-])cc1`, the displacement amounted to 0.7%.
As to `COc1ccc(C(=O)Nc2ccc(C(=O)N3CCOCC3)cc2)cc1OC`, the displacement came to 1.7%.
For `Cc1ccc(C(=O)O)cc1NC(=O)CN1C(=O)c2ccccc2C1=O`, the displacement came to 0.1%.
For `CCOc1ccc(C(=O)Nc2ccc(Br)cn2)cc1Cl`, the displacement came to 0.3%.
The same measure for `COc1ccc(-c2ccc(/C=C/C(=O)c3cc4ccccc4o3)o2)cc1`: -52.6%.
On to `CCOc1ccc(C(=O)Nc2nnc(SCC)s2)cc1`, for which the displacement was 16.4%.
In the case of `COc1ccc(C2C(C(=O)c3cccs3)=C(O)C(=O)N2c2nncs2)cc1` (stereo unspecified), the displacement was found to be 143%.
As to `CC(=O)Oc1ccc2oc(C)c(C(C)=O)c2c1`, the displacement amounted to 16.5%.
